# According to the supplement of paper PMC3334620:
# Over roughly 33,000 sequences, “E-score (-0.5 to 0.5)” has its median near -0.054; the highest 2% begin near 0.39. The list shows a part of the results.
# Molecular target: Ylr278c (UniProt Q05854)
# Assay: PBM E-score (8-mer binding enrichment) (E-score (-0.5 to 0.5)); higher = stronger / more preferred TF binding; most listed sequences are background and not binding sites
# Conditions: protein concentration: 200 nM; construct: GST-DNA-binding domain
# Procedure, shortened: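 Each ungapped eight-base word and its reverse complement, pooled, received an E-score from the Universal PBM Analysis Suite. Underlying scans, normalised with masliner, recorded fluorescent anti-GST bound to GST-tagged yeast transcription factors. These were applied at about 100-200 nM to universal all-10-mer Agilent arrays double-stranded by primer extension.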
row,Sequence,PBM E-score
1,CCCTTGAG,-0.158
2,GCCACTGA,-0.0434
3,ATAACTTC,0.0592
4,AAGGAGGA,-0.247
5,CCATAACG,-0.0935
6,GAGCCTGA,-0.111
7,GGAAAATA,0.189
8,AACGTCTA,-0.118
9,AGAGAAGG,-0.135
10,ATTGAATC,-0.143
11,ATTTCACG,0.152
12,AGACTAAG,-0.103
13,GAGCTTGA,-0.109
14,CGGAACCC,0.341
15,ACCTGCTA,-0.16
16,ACTTATCC,0.148
17,AGTTGAGG,-0.0713
18,GCCTGGAC,-0.0494
19,AAGGTTTC,-0.0319
20,GCGTCTAA,-0.175
21,AAATACTC,0.0296
22,AGGTCGCG,0.0688
23,ACCTACCA,-0.295
24,CGAGAGGC,-0.107
25,CGCTAGAA,-0.0105

row,Sequence,PBM E-score
1,ATGGCGGG,0.28
2,CGGCAGCA,0.0932
3,TCGTGGCA,-0.204
4,GCGCTTAA,-0.117
5,CGACTTCC,0.159
6,GTCCGCAA,0.334
7,ATGGCAGG,0.0995
8,GGAGTCAC,0.218
9,GCCTTTCA,-0.0153
10,AGACAAGG,-0.0396
11,ATGGGCGA,-0.176
12,ACTATGAA,-0.22
13,CGCAGCTC,0.00983
14,AACAGACA,0.0238
15,AGATGCAA,-0.237
16,AACAGCAG,-0.0354
17,CAATTCCG,0.465
18,GACAGACC,-0.155
19,ATCACGAC,-0.199
20,AACAATAG,-0.241
21,CTGATCAG,0.0402
22,GCACTTGA,-0.151
23,CGTATCAA,-0.0546
24,AGATTCTC,0.00939
25,ACACCTTA,-0.0662

row,Sequence,PBM E-score
1,ATGCGCTC,-0.034
2,TGATTCCA,-0.24
3,ACATAAGA,-0.0616
4,ATTGTCGA,-0.0143
5,AATGCAGG,-0.0518
6,CACATGTC,-0.157
7,AGTGCGCA,0.203
8,CAGGAGCC,-0.107
9,ACTACGAT,-0.13
10,ATGCGCCG,0.289
11,GTGGCACA,-0.247
12,AGGTTGGC,-0.0782
13,AGTGTACC,-0.182
14,CCGATGAA,0.274
15,TAGCCCGA,0.198
16,GCCGGCGC,0.396
17,CTGGTTCC,0.0612
18,CTTTTTTC,-0.0518
19,AGAGTCCT,-0.0875
20,GATCCTGC,-0.00417
21,CCCGAAGC,0.153
22,TACTGCCA,-0.113
23,CACTTATG,-0.0294
24,GACCCAGA,-0.0737
25,ATTAAAAC,0.137

row,Sequence,PBM E-score
1,GCGCCAAC,0.0418
2,CGCGGGAG,0.104
3,TCTTCTCA,0.0619
4,ACCAGAGT,-0.219
5,AGGCGATC,-0.159
6,AAGATCCC,-0.0372
7,ACCGCGAT,0.177
8,CGTGGTGC,-0.084
9,ATTGGTGA,-0.205
10,GGATGAGA,-0.186
11,GAGTTCAA,-0.029
12,CCACATGC,-0.117
13,ATTACACA,-0.0996
14,ACTTAGGG,-0.176
15,CGGTTTGC,0.168
16,AAAGATTG,-0.146
17,CTGAATCC,-0.00381
18,GGGCGGCA,0.302
19,AGGAATCG,0.0706
20,CCGAGCGG,0.368
21,AGCCTCAG,-0.228
22,GTCATTTA,-0.205
23,CATGGTGC,-0.143
24,CACCGCGC,0.201
25,AAGTTTAG,-0.079

row,Sequence,PBM E-score
1,AGGGTTTG,-0.0478
2,ATCACACG,-0.0338
3,ATTCTGAA,-0.0198
4,CGGTTTGA,-0.079
5,CAGGAGCA,-0.067
6,GCGGCCGA,0.188
7,CATCGTCC,0.0787
8,AAGACTGC,-0.192
9,ACACAGCA,-0.0577
10,AGCGACTG,-0.344
11,TAAATAGA,-0.0919
12,CAAAAATG,-0.0479
13,AAAGGTTG,-0.176
14,CCTGACGC,-0.114
15,AGGACAGG,-0.175
16,CTATTTGA,-0.0257
17,GAAGATAC,0.0545
18,TAATGTCA,-0.191
19,CCCACCCA,0.138
20,AACTAGGA,-0.0121
21,AACTATGG,-0.0862
22,GCTAGGCC,0.0897
23,AGTATTAT,-0.399
24,AGAACTTC,-0.16
25,ACCAGAGA,-0.184

row,Sequence,PBM E-score
1,GGCGAATA,0.216
2,GCACTAAA,0.0873
3,GTTAACGA,-0.203
4,CAGCTGGA,-0.059
5,ACTGGACG,-0.0338
6,AGATTGTC,0.148
7,GGAGTCAA,0.128
8,AAATACGT,-0.198
9,CTCTGCGA,-0.173
10,CTCGTTAC,-0.336
11,TATGTCGA,-0.131
12,AAGGCTCC,0.0701
13,CCGACCCC,0.127
14,AACGAACG,-0.0598
15,CTTGTCTA,-0.164
16,CTATCACC,-0.0252
17,AGATCCCA,-0.0965
18,AGACGCTC,-0.14
19,CTTCTTGA,-0.2
20,CTTTACAA,-0.0164
21,CCCCTAGC,-0.214
22,GGCACGCA,0.0349
23,ACAGTAAC,-0.145
24,ACGCGGGG,0.352
25,CACTGCTA,-0.205

row,Sequence,PBM E-score
1,AACTAGTG,-0.182
2,CGTCCGAG,0.296
3,CAATCCTA,-0.103
4,AGTCGGGG,0.282
5,AGACCTAG,-0.201
6,GGCTGACC,-0.17
7,ATAGGCGA,-0.0977
8,GATAACCA,0.0922
9,CGGTCTAC,0.0266
10,AACAATCG,-0.0095
11,CGTTAGTA,-0.00349
12,CGACGAGC,-0.102
13,ACTGGGGC,-0.0853
14,CCTTAAGC,-0.147
15,TCGGAGAA,0.465
16,AGGACATG,-0.229
17,TCGAGCAA,-0.076
18,CGGACTTA,0.452
19,GACAGGTC,-0.11
20,GCAGGCGA,-0.201
21,CAGCGTTA,-0.121
22,TAAATAAA,-0.133
